# Hit rate of the full screen: of about 310,000 compounds, about 14,000 (4.5%) showed an effect of 50% or more. The effect is printed as a negative number. The list shows a part of the results.
# Biological target: human ether-à-go-go-related gene (hERG) potassium channel (human, UniProt Q12809)
# Experiment: primary screen, population patch clamp on CHO cells stably expressing hERG
# 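Note: peak tail current of the secondary pulse compared with the same well before compound.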
# Sequence of human ether-à-go-go-related gene (hERG) potassium channel (Q12809 whole entry, looked up): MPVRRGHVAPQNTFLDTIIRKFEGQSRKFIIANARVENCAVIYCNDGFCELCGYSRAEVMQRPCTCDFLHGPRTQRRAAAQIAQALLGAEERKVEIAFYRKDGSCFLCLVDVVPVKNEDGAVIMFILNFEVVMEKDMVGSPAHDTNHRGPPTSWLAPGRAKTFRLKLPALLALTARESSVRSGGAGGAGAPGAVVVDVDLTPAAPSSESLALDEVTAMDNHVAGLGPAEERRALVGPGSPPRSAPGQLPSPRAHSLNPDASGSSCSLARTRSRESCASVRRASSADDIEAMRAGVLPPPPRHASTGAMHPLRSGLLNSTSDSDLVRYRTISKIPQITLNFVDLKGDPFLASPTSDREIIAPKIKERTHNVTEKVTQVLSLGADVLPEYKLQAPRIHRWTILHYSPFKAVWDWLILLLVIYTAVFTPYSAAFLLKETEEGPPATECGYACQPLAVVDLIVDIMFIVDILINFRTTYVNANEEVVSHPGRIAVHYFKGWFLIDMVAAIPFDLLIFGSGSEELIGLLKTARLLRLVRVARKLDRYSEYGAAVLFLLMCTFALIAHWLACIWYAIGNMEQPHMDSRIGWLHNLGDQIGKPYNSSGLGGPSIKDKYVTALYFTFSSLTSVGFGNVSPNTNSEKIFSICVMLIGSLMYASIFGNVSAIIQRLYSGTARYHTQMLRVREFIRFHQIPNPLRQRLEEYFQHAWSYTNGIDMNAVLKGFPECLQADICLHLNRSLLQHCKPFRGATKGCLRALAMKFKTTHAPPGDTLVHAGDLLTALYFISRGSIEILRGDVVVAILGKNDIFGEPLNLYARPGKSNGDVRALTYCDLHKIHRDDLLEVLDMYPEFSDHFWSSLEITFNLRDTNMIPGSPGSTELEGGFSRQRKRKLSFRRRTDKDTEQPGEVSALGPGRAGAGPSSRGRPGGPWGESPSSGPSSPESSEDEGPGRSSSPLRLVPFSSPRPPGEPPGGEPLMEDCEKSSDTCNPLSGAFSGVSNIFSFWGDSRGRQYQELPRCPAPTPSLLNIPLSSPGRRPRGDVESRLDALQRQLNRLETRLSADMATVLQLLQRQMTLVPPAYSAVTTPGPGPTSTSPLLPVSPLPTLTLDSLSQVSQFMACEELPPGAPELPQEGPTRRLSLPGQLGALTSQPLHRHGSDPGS
row,SMILES,"hERG current change (%, negative = inhibition) at 10uM [%]"
1,COc1ccc(CCNC(=O)C(=O)c2cn(CC(=O)N3CCOCC3)c3ccccc23)cc1OC,3.86
2,CCN(CC)c1ccc(S(=O)(=O)N2CCOCC2)cc1NC(=O)CSc1n[nH]c(N)n1,5.34
3,CC(C)c1ccc(/C=C/C(=O)Nc2ccc(CN3CCOCC3)cc2)cc1,-26.7
4,C=CCC(C=C)S(=O)(=O)c1ccc(C)cc1 (stereo not shown),7.28
5,COc1ccc2cc(C(=O)NCc3ccco3)c(=O)oc2c1,26.7
6,Cc1ccc(S(=O)(=O)/N=C(/Nc2ccc3[nH]c(=O)[nH]c3c2)c2ccc(F)cc2)cc1,-7.77
7,CN(c1ccc(C(=O)NCc2ccco2)cc1)S(C)(=O)=O,5.87
8,O=C(CCn1c(SCC(=O)NCc2ccco2)nc2ccccc2c1=O)NCCc1ccccc1,-34.5
9,Cc1cc(C(=O)COc2ccccc2[N+](=O)[O-])c(C)n1C1CC1,-2.25
10,CCOC(=O)C1C(=O)NC(N2CCN(c3ccccc3)CC2)=NC1c1ccco1 (stereo not shown),-5.81
11,O=C(CSc1ccc(-c2ccc(Br)cc2)nn1)NC1CCCC1,11.7
12,CCCN1CCN(C(=O)c2ccc(-c3ccc([N+](=O)[O-])cc3)o2)CC1,-78.1
13,COc1ccc(OC(=O)COc2ccc(Cl)cc2)cc1,32.2
14,O=C(NCc1cc2ccccc2[nH]1)C1CCC(=O)N(CCCN2CCCC2=O)C1 (stereo not shown),17.3
15,O=C(COC(=O)/C=C/c1ccc([N+](=O)[O-])cc1)NCC1CCCO1 (stereo not shown),-1.77
16,COc1ccc(CCNC(=O)CN2C(=O)c3cccc4cccc(c34)C2=O)cc1OC,17.6
17,COc1ccc(C)cc1NC(=S)NNC(=O)c1ccccc1Cl,17.1
18,Cc1noc(C)c1-c1nc(CS(=O)(=O)c2ccccc2)no1,-4.72
19,CC(=O)C1=C(O)C(=O)N(CCc2c[nH]c3ccccc23)C1c1ccc(C)cc1 (stereo not shown),2.3
20,N#Cc1ccccc1CN1C(=O)NC(Cc2c[nH]c3ccccc23)C1=O (stereo not shown),10.7
21,O=C(CSc1ncc(-c2ccccc2)n1-c1ccccc1)NCc1ccco1,-2.21
22,COc1ccc(CNC(=O)C(c2cccs2)N(Cc2ccco2)C(=O)Cc2cccs2)cc1 (stereo not shown),-7.58

row,SMILES,"hERG current change (%, negative = inhibition) at 10uM [%]"
1,Cn1nc(-c2ccc(C(=O)NCCO)cc2)c2ccccc2c1=O,28.3
2,N#Cc1cccnc1Nc1cccc(Cl)c1,-11.6
3,CCC(C)Oc1ccccc1C1CC(=O)NC2=C1C(=O)CCC2 (stereo not shown),13.1
4,O=C(CSc1nncn1-c1cccnc1)Nc1ccccc1C(F)(F)F,4.9
5,Clc1ccc(OCCSc2ncccn2)c2ccccc12,30.7
6,O=C(NCC1CCCO1)c1ccc2c(=O)n(-c3ccc(F)cc3)c(=S)[nH]c2c1 (stereo not shown),20.4
7,Cc1ccc(S(=O)(=O)NCCC(=O)O)cc1,25.6
8,O=C(CN(C1CCCCC1)S(=O)(=O)c1ccc(Cl)cc1)N1CCOCC1,-59.5
9,CCOc1cc(C2NC(=O)NC(c3ccccc3)=C2C(C)=O)ccc1OCC(N)=O (stereo not shown),0.596
10,COc1ccc(Nc2nc(C)cc(=O)[nH]2)c(OC)c1,-10.5
11,COc1ccc(C(=O)Cn2cc[n+](C)c2)cc1.[Br-],3.79
12,Cc1cc2nnc(SCC(=O)NCC3CCCO3)n2c2ccccc12 (stereo not shown),21.9
13,CC1=C(C(=O)Nc2ccccc2)C(c2ccco2)n2ncnc2N1 (stereo not shown),1.42
14,CC(Sc1nc2ccccc2c(=O)n1CC1CCCO1)C(=O)Nc1ccc(S(N)(=O)=O)cc1 (stereo not shown),-47.3
15,COc1ccc(-c2nc(N)ncc2-c2ccc(Cl)cc2)c(O)c1,13.6
16,CCC(=O)c1ccc(N2CCN(C(=O)c3cc([N+](=O)[O-])ccc3N3CCN(C)CC3)CC2)c(F)c1,-46.4
17,S=c1nc(C2CC2)[nH]c2ccccc12,20.7
18,COc1ccc(Cn2nnnc2C(c2cccs2)N2CCN(c3ccc([N+](=O)[O-])cc3)CC2)cc1 (stereo not shown),-8.98
19,Cc1noc(C)c1CSCC(=O)N(C)CC(=O)Nc1ccc(Cl)c(C(F)(F)F)c1,-30.1
20,COc1cccc(NC(=O)COC(=O)CCC(=O)c2cccs2)c1,5.06
21,CCN(CC)S(=O)(=O)c1cc(NC(=O)Cc2n[nH]c(=O)c3ccccc23)ccc1C,-21.2
22,O=c1c2cc(-c3ccccc3)sc2ncn1/N=C/c1ccco1,8.21

row,SMILES,"hERG current change (%, negative = inhibition) at 10uM [%]"
1,Cn1cc(CC(=O)NCCCN2CCOCC2)c2ccccc21,19.5
2,O=C(C/C(=N/O)c1ccccc1O)C(F)F,3.01
3,Cc1cccc(CC(=O)Nc2ccon2)c1,11.3
4,COc1ccc(CCNC(=O)CCNC(=O)N2CC(=O)Nc3ccccc32)cc1OC,21.7
5,CSCCC(NC(=O)OCc1ccccc1)C(=O)NCc1cccnc1 (stereo not shown),6.06
6,Cc1ccccc1Nc1cc(=O)oc2ccccc12,-5.14
7,COc1ccc(C(=O)CN2C(=O)c3ccccc3C2=O)c(OC)c1C,3.92
8,CCN(CCNS(=O)(=O)c1ccc2[nH]c(=O)sc2c1)c1ccccc1,-28.5
9,COc1ccc(-c2nnc(SCC(=O)Nc3nncs3)o2)cc1,21.3
10,Cc1ccc(S(=O)(=O)N2CCOCC2)cc1NC(=O)Cn1ccsc1=N.Cl,-5.64
11,O=[N+]([O-])c1ccc(CS(=O)(=O)c2ccc(Cl)cc2)cc1,-9.81
12,O=C(O)c1cccc(S(=O)(=O)N2CCN(c3ccccn3)CC2)c1,19.3
13,O=C(CSc1nc2ncc(Cl)cc2[nH]1)NCC(=O)Nc1ccc(F)c(F)c1F,-11.7
14,C=CCN1CN=C(NS(=O)(=O)c2ccc(NC(C)=O)cc2)NC1,-0.801
15,Cl.c1ccc(-c2csc(N3CCOCC3)n2)cc1,-1.86
16,CCOC(=O)c1c(-c2ccccc2)cn2c(C)cc(C)nc12,-22.9
17,COc1ccc(/C=C2\SC(=O)NC2=S)cc1OC,7.46
18,CCOc1cc(C(=O)N(CC)CC(=O)Nc2c(F)cccc2F)ccc1OCC(=O)N1CCCCC1,-7.38
19,Cc1ccc(S(=O)(=O)N2CCCCC2C)cc1[N+](=O)[O-] (stereo not shown),4.84
20,OC(c1ccccc1)(c1ccccc1)C1CCN(C(=S)NC2CCCC2)CC1,-6.13
21,Cc1cc(C(=O)CN2CCN(CC(=O)Nc3ccc(F)cc3)CC2)c(C)n1C1CC1,-74.5
22,O/N=C\c1ccc2noc(-c3ccc(Cl)cc3)c2c1,15.3

row,SMILES,"hERG current change (%, negative = inhibition) at 10uM [%]"
1,CCOc1ccccc1NC(=O)COC(=O)c1ccccc1SCC(=O)N1CCCC1,1.65
2,COc1ccc(CC(=O)OCC(=O)Nc2c(C)n(C)n(-c3ccccc3)c2=O)cc1,-7.08
3,Cl.O=C1c2cccc3cccc(c23)C(=O)N1CC1CCN(CC(O)COCc2ccc3c(c2)OCO3)CC1 (stereo not shown),-75.3
4,C#CCOCCOCCOCCNc1nc(N2CCN(C(=O)Cn3cc(CCC[NH+]=C(N)N)nn3)CC2)nc(N2CCN(C(=O)[C@H](CCCC[NH3+])n3cc(CCC(=O)O)nn3)CC2)n1.[Cl-],-11.4
5,Cc1ccc(N2C(=O)CSC2c2cccnc2)cc1F (stereo not shown),5.77
6,CC(C)(C)c1ccc(C(=O)Nc2nnc(Cc3c[nH]c4ccccc34)s2)cc1,3.42
7,Fc1ccccc1-c1n[nH]c(=S)n1/N=C/c1c[nH]c2ccccc12,17.3
8,Cc1ccc(NC(=O)C(=O)NCc2ccc(/C=N/NC(=O)c3c(C)nc4cc(C)ccn34)o2)cc1,-64
9,Cc1noc(C)c1-c1ccc2nc[nH]c(=O)c2c1,-9.5
10,Cc1ccsc1C(=O)NNC(=S)NC1CCCCC1,17.2
11,COc1ccc(N2C(=O)CSC2c2ccc3c(c2)OCO3)cc1 (stereo not shown),-8.17
12,CC1(C)CC(=O)C(C=Nc2ccc3[nH]ncc3c2)=C(O)C1,-12.3
13,CCOc1c(Br)cc(C2NC(=O)CCC2[N+](=O)[O-])cc1OC (stereo not shown),4.34
14,CCn1c(COc2ccccc2OC)nnc1SCC#N,-3.43
15,Cc1nc2nc(SCC(N)=O)[nH]c2cc1Br,15.9
16,COc1ccc(CCN2C(=O)N[C@@H](CCC(=O)O)C2=O)cc1,19
17,O=C(CCSc1nnc2ccccn12)Nc1ccc2c(c1)OCO2,16.3
18,Cc1ccc(C(C)(C)C)cc1S(=O)(=O)N1CC(=O)Nc2ccccc21,-14.3
19,CCOC(=O)c1c(-c2ccccc2)cn2ccccc12,-16.5
20,CC(=O)O[C@H]1CC[C@@]2(C)C(CCC3C2CC[C@]2(C)OC(=O)CCC32)C1 (stereo partly shown),-10.7
21,CC(=O)NCCc1ccc(S(=O)(=O)NC2OC(=O)c3ccccc32)cc1 (stereo not shown),-3.77
22,CCOC(=O)/C(=N\Nc1cc(Cl)ccc1Cl)N1CCN(C)CC1,-16.9

# Source: article PMC4336329 (PLoS ONE, 2015)
